{"source": "patent US20090298813A1", "about": "“USE OF NEUROPROTECTIVE COMPOUNDS IN OBTAINING MEDICAMENTS INTENDED FOR THE TREATMENT OF NEURODEGENERATING DISEASES” (LES LABORATOIRES SERVIER, priority 2007, published 2009)", "key": {"[1]": {"tested_on": "newborn mice", "test": "Protection from neurodegeneration caused by ibotenate in newborn mice", "assay_type": "in vivo, mouse", "experimental": "Ibotenate, an agonist of N-methyl-D-aspartate (NMDA) receptors, when administered by the intracerebral route to the newborn mouse, brings about lesions of excitotoxic origin in the neocortex and the underlying white matter.\nThe ibotenate injection is performed in newborn mice aged 5 days (P5). The compounds of the invention are administered by the i.p. route at a dose of 20 mg/kg [either simultaneously] (P5), [or 8, 24 or 48 hours after induction of the lesions]. […] Cell markers were applied to the brain slices of animals sacrificed at various times after administration of ibotenate and the compound of the invention: (1) cleaved caspase-3, an apoptosis marker; (2) isolectin, a microglial activation marker; (3) glial fibrillary acidic protein (GFAP), a marker of astrogliosis."}, "[2]": {"tested_on": "Mouse embryonic stem (ES) cells", "test": "Effect on cell differentiation of stem cells (markers by Q-RT-PCR)", "assay_type": "cell-based", "settings": "1 μM, after 8 days of exposure", "from_the_text": "Mouse embryonic stem (ES) cells are isolated from the internal cell mass of the blastocyst. Depending on the culture conditions, they can multiply indefinitely or can differentiate to give rise to various types of cell. The ES cells differentiate into neural precursors which, in turn, develop into a heterogeneous population of cells composed of astrocytes, oligodendrocytes and different types of neurons (GABAergic, glutamatergic, dopaminergic, cholinergic, glycinergic etc.) (Okabe S., Forsberg-Nilsson K., Spiro A. C. et al., Mechanisms of Development, (1996), 59, 89-102; Brüstle O., Spiro A. C., Karram K. et al., Proc Natl Acad Sci USA, (1997), 94, 14809-14814; Guan K., Chang, Rolletschek A. et al., Cell Tissu Res, (2001), 305, 171-176). Adding certain differentiation inducers such as retinoic acid (RA) to the culture medium facilitates orientation of the ES cells towards the neuronal route (Strübing C., Ahnert-Hilger G., Shan J. et al., Mechanisms of Development, (1995), 53, 275-287). The obtaining of a homogeneous population of neurons constitutes a key step in the objective of treating neurodegenerative diseases whether on the basis of transplanting ES or for differentiation of the ES of the patient.\nThe experiment is carried out in the following manner: 12 hours after dividing the confluent ES cells for subculturing, they are treated with compounds of the invention at concentrations of 0.1; 1 and 10 μM and with RA (1 μM). The treatment is repeated every 2 days and the cell extracts are made 3 hours after each treatment, on the 1st day (3 hours), the 4th day (D4) and 8th day (D8) for quantification of the markers by Q-RT-PCR -(quantitative reverse transcription polymerase chain reaction).\nThese markers are: nestin, neural precursor marker; synaptophysin, neuronal differentiation and synaptic plasticity marker; TH, marker of differentiation into neurons of dopaminergic or noradrenergic type; glutamic acid decarboxylase (GAD), marker of differentiation of ES into GABAergic neurons; GFAP, specific astrocyte marker."}, "[3]": {"settings": "20 mg/kg i.p., sacrifice at 24 h"}, "[4]": {"settings": "20 mg/kg i.p., simultaneous injection at 0 h, sacrifice at 120 h"}, "[5]": {"settings": "injected 24 hours after ibotenate, when the lesions have already developed"}}, "data": [{"molecule": "CN1CCC=C(C(=O)Nn2ccc3ccccc32)C1", "note": "[Example 2, N-(1H-indol-1-yl)-1-methyl-1,2,5,6-tetrahydropyridine-3-carboxamide]", "values": [{"measurement": "Reduction in the intensity of markers relative to the controls, Cleaved caspase-3 (apoptosis)", "setting": "[1]; [3]", "result": 51, "unit": "%"}, {"measurement": "Reduction in the intensity of markers relative to the controls, Isolectin (microglial activation)", "setting": "[1]; [3]", "result": 50, "unit": "%"}, {"measurement": "Reduction in the intensity of markers relative to the controls, GFAP (astrogliosis)", "setting": "[1]; 20 mg/kg i.p., sacrifice at 120 h", "result": 46, "unit": "%"}, {"measurement": "Reduction in the size of lesions relative to the controls, cortex", "setting": "[1]; [4]", "result": 63, "unit": "%"}, {"measurement": "Reduction in the size of lesions relative to the controls, white matter", "setting": "[1]; [4]", "result": 38, "unit": "%"}, {"measurement": "reparatory effect: reduction in the size of the lesions, cortex", "setting": "[1]; [5]", "result": 27, "unit": "%"}, {"measurement": "reparatory effect: reduction in the size of the lesions, white matter", "setting": "[1]; [5]", "result": 37, "unit": "%"}, {"measurement": "increase in GFAP (specific astrocyte marker)", "setting": "[2]", "result": 67, "unit": "%"}, {"measurement": "increase in TH (marker of differentiation into dopaminergic or noradrenergic neurons)", "setting": "[2]", "result": "253±62", "unit": "%"}, {"measurement": "increase in synaptophysin (neuronal differentiation and synaptic plasticity marker)", "setting": "[2]; p<0.05", "result": "229±37", "unit": "%"}]}]}
